# Test results as given in PubChem BioAssay AID588456 (National Center for Advancing Translational Sciences (NCATS), 2011).
# In all, about 390,000 compounds went through this assay and about 55 (0.01%) were called active. Inconclusive means that the source gave no clear call. Such entries were picked first, then a sample of the others. The call rests on the fitted dose curve; in most records, active means well fitted inhibition curve with a large enough effect; inconclusive means small, poorly fitted or top-dose-only effect; inactive means no such curve, though single readings can be large or run the other way. Potencies of inconclusive entries are doubtful fits and often do not repeat.
# Target: Thioredoxin reductase 1, cytoplasmic (Rattus norvegicus) (UniProt O89049)
# UniProt O89049, sequence (O89049 whole entry, looked up): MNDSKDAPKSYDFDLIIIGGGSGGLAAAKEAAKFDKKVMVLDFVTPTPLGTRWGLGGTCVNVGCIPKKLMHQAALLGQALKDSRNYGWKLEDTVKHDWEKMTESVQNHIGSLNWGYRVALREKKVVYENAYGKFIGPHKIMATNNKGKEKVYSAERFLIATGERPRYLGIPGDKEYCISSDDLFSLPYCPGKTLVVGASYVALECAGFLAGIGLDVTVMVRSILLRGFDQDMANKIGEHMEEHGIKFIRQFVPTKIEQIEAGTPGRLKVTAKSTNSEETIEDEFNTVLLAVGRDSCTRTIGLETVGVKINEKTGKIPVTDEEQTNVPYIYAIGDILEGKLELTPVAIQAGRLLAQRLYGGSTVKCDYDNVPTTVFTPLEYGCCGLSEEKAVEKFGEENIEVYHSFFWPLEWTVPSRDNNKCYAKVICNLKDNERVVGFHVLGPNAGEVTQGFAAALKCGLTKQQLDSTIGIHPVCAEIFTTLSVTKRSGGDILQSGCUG
# Experiment: qHTS Assay for Substrates of Mammalian Selenoprotein Thioredoxin Reductase 1 (TrxR1): qHTS; further: nearly all actives have a fitted effect of over 50% in size
# Details: purified TrxR1 substrate turnover, NADPH consumption readout; series mostly up to 114 µM; activity change, negative = substrate turnover: at the top concentration
# Procedure, shortened: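 Rat TrxR1, dispensed at 90 nM, was prereduced with 400 uM NADPH (final) for 5 min at ~22 deg C, then incubated with compound 15 min before 400 uM selenite. A first-read NADPH fluorescence drop versus no-compound background flagged substrates.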
# On the % scale 0 is the no-effect control and ±100 the full control effect; potency means the concentration at half of the fitted maximal effect; tags describe the fitted curve by direction and shape.
SMILES,Potency,"activity change, negative = substrate turnover"
Cn1c2ccccc2c(=O)c2c(=O)n(-c3ccccc3)c(-c3ccc(C(C)(C)C)cc3)nc21,"inconclusive: 0.447 µM [inhibitor, full curve, poor fit]",–
O=[N+]([O-])c1ccc([C@H](O)[C@H](CO)N=Cc2ccccc2O)cc1,"inconclusive: 6.31 µM [inhibitor, partial curve, poor fit]",–
CCc1ccccc1NC(=O)Cn1c(=O)n(-c2cccc(C)c2)c(=O)c2c1c1cc(OC)ccc1n2C,–,inactive: 9.12%
CCCC[C@@]1(C2CCCC2)Cc2cc(OCC(=O)O)c(Cl)c(Cl)c2C1=O,"inconclusive: 37.7 µM [inhibitor, single point]",–
CC(=O)Nc1ccc(S(=O)(=O)Nc2cccc3cccnc23)cc1,–,inactive: -13.2% [at 57.1 µM]
Cc1ccc(NC(=O)CN2C(=O)CC(c3ccc(C)c(C)c3)=Nc3ccccc32)cc1,–,inactive: -1.67% [at 57.1 µM]
O=C(Cn1nnc(-c2ccc(CN3CCOCC3)cc2)n1)Nc1nc(-c2ccccc2)cs1,–,inactive: 8% [at 57.1 µM]
CC1(C)CCC=[N+]1[O-],"inconclusive: 29.9 µM [inhibitor, partial curve, poor fit]",–
CCn1ccc2cc(S(=O)(=O)N3CCCN(C(=O)Nc4ccccc4C(F)(F)F)CC3)ccc21,"inconclusive: 39.8 µM [inhibitor, single point]",–
COc1ccc(C)cc1NC(=O)Nc1cccc(C(=O)O)c1,"inconclusive: 89.1 µM [inhibitor, single point]",–
C/C(=N/Nc1ccc(C(=O)O)cc1)c1ccc(O)c(O)c1O,"inconclusive: 50.1 µM [inhibitor, partial curve, poor fit]",–
N#C/C(=C\c1ccc(O)c(O)c1)C(=O)Nc1ccccc1,"inconclusive: 37.7 µM [inhibitor, partial curve, poor fit]",–
O=C(Nc1nnc(S(=O)(=O)N2CCCCC2)s1)c1ccc(Cl)cc1,inactive,–
O=C(O)/C(=C/c1ccco1)NC(=O)c1ccc(Br)o1,–,inactive: 3.99% [at 57.1 µM]
CC(C)(C)c1cc[n+](C2=C([O-])c3ccccc3C(=O)/C2=N\S(=O)(=O)c2cccs2)cc1,–,inactive: 0.432% [at 57.1 µM]
CCOCCCNC(=S)N1CCN(c2nc(-c3ccc(F)cc3)cs2)CC1,–,inactive: -2.75%
O=C(CI)Nc1cccc2cccnc12,–,inactive: 4.57% [at 0.457 µM]
Cc1cc(C)cc(NC(=O)c2sc3nc4n(c(=O)c3c2C)CCC4)c1,"inconclusive: 89.1 µM [inhibitor, partial curve, poor fit]",–
CC(C(=O)O)c1ccc(CC2CCCC2=O)cc1 (stereo not drawn),"inconclusive: 4.23 µM [inhibitor, full curve, poor fit]",–
COc1cc(OC)cc(C(=O)NCc2ccc3c(c2)OCO3)c1,–,inactive: 7.04% [at 57.1 µM]
CC(C)OCCCNC(=O)c1cn(C)c2ccc(S(=O)(=O)N3CCCCCC3)cc2c1=O,–,inactive: -0.539%
COc1ccc2c(c1OC)C(=O)N(c1ccc(F)cc1)C2,"inconclusive: 89.1 µM [inhibitor, single point]",–

SMILES,Potency,"activity change, negative = substrate turnover"
Cc1ccc(C)c(S(=O)(=O)c2cn(C)c3cc(N4CCCCC4C)c(F)cc3c2=O)c1 (stereo not drawn),–,inactive: 17.7%
CC(C)OC(=O)c1c(NC(=O)COc2cccc(Br)c2)sc2c1CCCC2,–,inactive: 4.28%
CC(C)C(=O)NC(NCC1CCCO1)C(Cl)(Cl)Cl (stereo not drawn),"inconclusive: 39.8 µM [inhibitor, single point]",–
COc1cccc(NC(=O)Cc2c(O)c3ccccc3[nH]c2=O)c1,"inconclusive: 39.8 µM [inhibitor, single point]",–
C=CCOc1ccccc1CNCCNC(=O)c1nonc1N,–,inactive: -0.598% [at 57.1 µM]
COc1ccc2ccc3c(c2c1)N=C[C@]1(O3)N(C)c2ccccc2C1(C)C,"inconclusive: 70.8 µM [inhibitor, partial curve, poor fit]",–
O=C(NNC(=S)NC(=O)c1ccc(Br)cc1)c1ccc([N+](=O)[O-])cc1,–,inactive: 9.79%
CC(=O)CCC(=O)OCC(=O)Nc1ccc(SC(F)F)cc1,–,inactive: 2.58% [at 57.1 µM]
Cc1ccc(-n2nnc3c(=O)n(CC(N)=O)cnc32)cc1,"inconclusive: 89.1 µM [inhibitor, partial curve, poor fit]",–
CC(C)C[C@H](NC(=O)c1nc[nH]c1C(=O)N[C@@H](CC(C)C)C(=O)OC(C)(C)C)C(=O)OC(C)(C)C,"inconclusive: 35.5 µM [inhibitor, partial curve, poor fit]",–
CCCCCCCC/C=C\CCCCCCCC(=O)NCc1ccc(O)c(OC)c1,"inconclusive: 37.7 µM [inhibitor, partial curve, poor fit]",–
COCCNC(=O)/C(C#N)=C/c1ccc(N2CCOCC2)o1,"inconclusive: 79.4 µM [inhibitor, single point]",–
O=c1oc2c(-c3cccc(F)c3)cc(O)cc2s1,"inconclusive: 89.1 µM [inhibitor, single point]",–
COc1ccc(C)cc1NS(=O)(=O)c1ccc2c3c(cccc13)C(=O)N2,"inconclusive: 100 µM [inhibitor, single point]",–
CCCCCCCCCCCCCCCCCCOC[C@H](COP(=O)([O-])OCC[N+](C)(C)C)OC,"inconclusive: 37.7 µM [inhibitor, partial curve, poor fit]",–
COC(=O)c1ccc(NC(=O)NCCn2nnc3cc(S(=O)(=O)N(C)C)ccc32)cc1,"inconclusive: 6.31 µM [inhibitor, single point]",–
COc1ccc(NC(=O)c2noc(C(C)C)c2[N+](=O)[O-])cc1,"inconclusive: 89.1 µM [inhibitor, partial curve, poor fit]",–
COc1cc(OC)c(OC)cc1/C=N/NC(=O)c1ccc(=O)n(C)c1,"inconclusive: 79.4 µM [inhibitor, partial curve, poor fit]",–
CC1=NN(C(N)=S)C(=O)C1N=Nc1ccc(S(N)(=O)=O)cc1 (stereo not drawn),–,inactive: -13.8%
CCc1ccc(-c2nc3c(=O)n(C)c(=O)nc-3n(CC)n2)cc1,active: 35.5 µM,–
CN1C(=O)/C(=C/C=C2/CCCN2C)N(C)C1=S,"inconclusive: 79.4 µM [inhibitor, partial curve, poor fit]",–
COc1cc(/C=C2/C(=O)NN(c3ccccc3)C2=O)cc(Br)c1O,"inconclusive: 35.5 µM [inhibitor, partial curve, poor fit]",–

SMILES,Potency,"activity change, negative = substrate turnover"
CCCOc1ccc(N2C(=O)CC(NCC(=O)OCC)C2=O)cc1 (stereo not drawn),"inconclusive: 89.1 µM [inhibitor, single point]",–
CCc1ccc(CN2CCC(N3CCC(C(=O)N4CCCC4)CC3)CC2)o1,"inconclusive: 89.1 µM [inhibitor, single point]",–
CN(C)c1ccc(CN2CCc3nc(N4CCN(c5ccccn5)CC4)ncc3C2)cc1,–,inactive: -1.45% [at 57.1 µM]
CC(=O)N1CCOc2cc(S(=O)(=O)Nc3cccc(C(F)(F)F)c3)c(Cl)cc21,–,inactive: 7.81%
O=[N+]([O-])c1ccc(NN=Cc2ccc(O)cc2)nc1,"inconclusive: 89.1 µM [inhibitor, single point]",–
CCCOc1ccccc1Cn1c(=O)sc2ccccc21,–,inactive: 6.64%
Nc1cc2nsnc2cc1Br,"inconclusive: 79.4 µM [inhibitor, single point]",–
COc1cc2c(cc1OC)-c1cc3ccc(OC)c(OC)c3c[n+]1CC2,"inconclusive: 89.1 µM [inhibitor, partial curve, poor fit]",–
NC(=O)c1ccc(N=Cc2ccc([N+](=O)[O-])s2)cc1,"inconclusive: 89.1 µM [inhibitor, partial curve, poor fit]",–
O=C(Nc1nnc(C2=COCCO2)o1)c1ccc(Cl)cc1,–,inactive: -0.648%
O=C(N/N=C/c1ccccn1)c1cc(-c2ccc(Cl)cc2)nc2ccccc12,–,inactive: -4.21%
COc1cccc(CN(C(=O)Cn2nnc(-c3ccccc3F)n2)C(C(=O)NC(C)(C)C)c2ccncc2)c1 (stereo not drawn),"inconclusive: 1.26 µM [inhibitor, partial curve, poor fit]",–
Cc1ccc(/C=N/Nc2ccc(Cl)c(C(=O)O)c2)s1,"inconclusive: 28.2 µM [inhibitor, partial curve, poor fit]",–
CCOc1ccc(NC(=S)N2C3CCCC2CC(NC(=O)C2CC2)C3)cc1 (stereo not drawn),"inconclusive: 89.1 µM [inhibitor, single point]",–
CCN(CC)S(=O)(=O)c1cc(NC(=O)CSCc2c(C)noc2C)ccc1C,"inconclusive: 89.1 µM [inhibitor, single point]",–
O=C1C(Cl)=C(Oc2ccccc2)C(=O)c2ccccc21,"inconclusive: 17.8 µM [inhibitor, full curve]",–
COc1ccc(C(=O)NCC(c2ccc(N(C)C)cc2)N2CCc3ccccc32)cc1 (stereo not drawn),–,inactive: -1.74% [at 57.1 µM]
Cn1nc(-c2ccc(Cl)cc2)nc2c(=O)n(C)c(=O)nc1-2,active: 17.8 µM,–
Nc1nc(Cl)c(N)c(NCC2(CO)CC(CCc3ccccc3)C2)n1 (stereo not drawn),"inconclusive: 50.1 µM [inhibitor, partial curve]",–
Cn1cc(C2=C(c3ccc(Cl)cc3Cl)C(=O)NC2=O)c2ccccc21,"inconclusive: 0.299 µM [inhibitor, partial curve, poor fit]",–
CCCCCCCCCCC(C)(C)C(=O)Nc1c(OC)cc(OC)cc1OC,"inconclusive: 20 µM [inhibitor, partial curve, poor fit]",–
FC(F)(F)c1ccc(-n2cnc3ccccc32)nc1,"inconclusive: 89.1 µM [inhibitor, single point]",–

SMILES,Potency,"activity change, negative = substrate turnover"
COc1ccccc1NCC(=O)N/N=C/C=C/c1ccccc1,–,inactive: -3.36%
C[N+]1(C)CCC(=C2c3ccccc3CC(=O)c3sccc32)CC1,"inconclusive: 70.8 µM [inhibitor, partial curve, poor fit]",–
CCN(CC)C(=O)c1ccc(/C=C/c2c[nH]c3ccccc23)[n+](C)c1,"inconclusive: 100 µM [inhibitor, partial curve, poor fit]",–
C=C(C)C(=O)Nc1cccc(C2=NOC3(C2)C[C@H](C(N)=O)N(C(=O)CC#N)C3)c1 (stereo partly drawn),"inconclusive: 2.24 µM [inhibitor, partial curve, poor fit]",–
O=C1C=C(c2c(O)ccc3ccccc23)c2ccccc2C1=O,active: 79.4 µM,–
O=Cc1cnc(N2CCCCC2)s1,–,inactive: -9.49%
CCOc1ccc(NC(=O)c2c(NCc3cc(OC)c(OC)cc3OC)sc3c2CCCC3)cc1,"inconclusive: 39.8 µM [inhibitor, single point]",–
O=S1(=O)CCN2C=C(Br)C=C(Br)C2=N1,–,inactive: 62.2%
CCCn1c(C(C)Nc2nc(-c3ccc(OC)cc3)cs2)nc2ccccc21 (stereo not drawn),–,inactive: 0.331%
O=C(CCC1CCN(C(=O)Cc2c(F)cccc2F)CC1)NC1CC1,"inconclusive: 89.1 µM [inhibitor, partial curve, poor fit]",–
COC(=O)CNC(=O)C1Cc2ccccc2CN1S(=O)(=O)c1cccs1 (stereo not drawn),–,inactive: 2.36%
CN(C)/C=N/C1=C(C#N)C(c2ccc(Br)cc2)c2ccc3ccccc3c2O1 (stereo not drawn),–,inactive: -1.14%
CC1=C(/C=C/C(C)=C/C=C/C(C)=C/C(=O)Nc2ccc(O)cc2)C(C)(C)CCC1,"inconclusive: 29.9 µM [inhibitor, partial curve, poor fit]",–
COc1cc(C2C=C(C34CC5CC(CC(C5)C3)C4)NC(=S)N2)cc(OC)c1OC (stereo not drawn),–,inactive: 0.504% [at 11.4 µM]
O=c1[nH]c(/C=C\c2ccc(O)c(O)c2)nc(O)c1[N+](=O)[O-],"inconclusive: 89.1 µM [inhibitor, partial curve, poor fit]",–
Cc1ccc(S(=O)(=O)c2nc(-c3ccco3)oc2SCC(N)=O)cc1,"inconclusive: 79.4 µM [inhibitor, single point]",–
CCO/C(=C/c1sc2ccc(OC)cc2[n+]1CCCS(=O)(=O)[O-])CC,"inconclusive: 89.1 µM [inhibitor, partial curve, poor fit]",–
CC(NC(=O)CN1C(=O)NC2(CCCCCC2)C1=O)c1ccccc1Cl (stereo not drawn),"inconclusive: 89.1 µM [inhibitor, partial curve, poor fit]",–
O=C(CSc1nc2ccccc2s1)N/N=C/c1ccco1,–,inactive: -10.3%
CCCOC(=O)c1c(NC(=O)C2c3ccccc3Oc3ccccc32)sc2c1CCCC2,"inconclusive: 89.1 µM [inhibitor, partial curve, poor fit]",–
O=C(O)C1CCN(c2ccc(Cl)nn2)CC1,"inconclusive: 39.8 µM [inhibitor, single point]",–
COc1ccc(C(=O)NC(=S)SCC(=O)O)cc1,–,inactive: 10.4%
